Source: the supplement of paper PMC5499739
The full ranking holds about 16,000 sequences; the median of “Z-score” is about -0.37, and the highest 2% start at about 3.2. This is one part of the list.

What follows are sequences tested on RBM10 RRM1-ZnF (GST-tagged construct) (assay: RNAcompete 7-mer binding Z-score; higher = stronger binding preference).
In short: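 A designed pool of 241 399 RNAs, each up to 41 nt and transcribed from microarray-derived DNA templates, was used at 1.5 nmol with 20 pmol of GST-tagged RBM10 constructs. The mixture, in 1 ml Hepes pH 7.8 buffer with KCl, NaCl, glycerol, DTT, BSA and glutathione Sepharose beads, was held 30 min at 4°C and then washed four times for 2 min at 4°C. Bound RNA was read out by microarray hybridisation, and enrichment of each heptamer motif was scored as a one-sided Z-score over the probes carrying it.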

Row | Sequence | RNAcompete 7-mer binding Z-score
1 | UGAGGAG | 1.86
2 | GUCUCAA | -0.425
3 | CCAGAGC | -0.383
4 | UAGUCAA | -0.383
5 | GUUAUCC | -0.61
6 | GGAAAUA | 1.1
7 | UUUCCCC | -0.659
8 | GUAUUAG | 0.566
9 | AGUAUUC | -0.493
10 | AUUCAGA | -0.402
11 | UCAUUCG | -0.75
12 | UUACGUG | -0.178
13 | AGGGCAU | 1.33
14 | UGGAGGG | 4.07
15 | ACUGUGA | -0.24
16 | UUUUAUU | -0.678
17 | UUGUGUU | -0.285
18 | GGAUAAC | 1.02
19 | AAAUGGU | 2.86
20 | GCUUGAA | -0.36
21 | GUGACAU | -0.0869
22 | AAAAGUC | -0.376
23 | GAAGACU | -0.0187

Row | Sequence | RNAcompete 7-mer binding Z-score
24 | UCGUCCU | -0.688
25 | UACCUGG | -0.487
26 | UUCCCAG | -0.415
27 | ACAAAAC | -0.454
28 | UUCUGUG | -0.415
29 | CCCAGUG | -0.295
30 | UCGCUCG | -0.49
31 | UAGAGGA | 1.69
32 | AUCGUUA | -0.487
33 | CGCAACA | -0.597
34 | UUUGAAC | -0.636
35 | UUCAUCG | -0.681
36 | ACCUGAC | -0.779
37 | CUUUUGU | -0.824
38 | GGCGUCA | 0.29
39 | AUCUCGG | -0.493
40 | GCUGUCU | -0.772
41 | UGGCCAU | -0.324
42 | CUUUGCU | -0.899
43 | CCAGGUC | -0.402
44 | AUCAACA | -0.522
45 | GGGUAUA | 2.67
46 | UCAAAAU | -0.591

Row | Sequence | RNAcompete 7-mer binding Z-score
47 | GUGACGU | 0.417
48 | CGCAACG | -0.324
49 | GCUUCCC | -0.665
50 | UGAAGCA | 0.105
51 | AGUACAC | -0.412
52 | UUACUCC | -0.772
53 | AACAGUC | -0.6
54 | AAACUCU | -0.841
55 | UCAUAUC | -0.678
56 | CGAAAGG | 2.19
57 | AAUCCCG | -0.821
58 | UAUGAAA | -0.357
59 | GACUCAA | -0.594
60 | AGGUGGG | 3.76
61 | GACCUAA | -0.828
62 | CCGGGGG | 1.54
63 | GUUAACA | 0.017
64 | GACAUAC | -0.243
65 | UCCCUGG | -0.24
66 | UGCCGUC | -0.6
67 | CUACGGC | -0.288
68 | GUAUCCA | -0.402
69 | GACCUGC | -0.854

Row | Sequence | RNAcompete 7-mer binding Z-score
70 | CCGCGGG | 0.732
71 | GGAGGGA | 4.01
72 | AUUACAU | -0.516
73 | UUGGGCU | 1.43
74 | GGAAGUU | 1.14
75 | CCACCCC | -0.305
76 | ACCACAA | -0.72
77 | AAGAUGC | -0.00246
78 | AUUGAUA | -0.11
79 | GCACGGA | 0.933
80 | GGUCCUA | -0.425
81 | UCGGUUG | 0.693
82 | UUCCGCA | -0.824
83 | ACCUCAU | -0.733
84 | UCAUUAA | -0.509
85 | AGCAGGC | 0.537
86 | CAGAAGA | -0.0187
87 | GUACAGC | -0.0414
88 | GGUAAUG | 2.97
89 | UUAAUGC | -0.623
90 | CAAAAAA | -0.448
91 | CGCAGAA | 0.00404
92 | UCUGAUC | -0.74
